# Experimental data: paper PMC4242493
# This is one part of the list. The list includes weakly bound sequences.
# Target: MaxL homodimer (UniProt P61244)
# Assay: universal protein-binding microarray (PBM)
# Settings: PBS-based mixture, 10 nM His-tagged protein dimer, 2% milk, 200 ng/uL BSA, 50 ng/uL salmon testes DNA, 0.02% TX-100; detection with Alexa 488 anti-His …; high values mean tight binding; most listed sequences are background and not binding sites; double strand, one strand shown
# UniProt P61244, sequence (P61244 whole entry): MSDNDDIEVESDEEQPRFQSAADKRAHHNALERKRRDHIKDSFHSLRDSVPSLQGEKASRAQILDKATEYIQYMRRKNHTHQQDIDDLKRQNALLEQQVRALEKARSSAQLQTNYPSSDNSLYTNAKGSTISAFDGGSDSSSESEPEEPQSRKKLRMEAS
row,Sequence,binding signal (normalized occupancy)
1,GAAACAGC,0.0718
2,CACCATGG,0.0885
3,AGTCTCAT,0.0794
4,AAAAGTTG,0.0714
5,AGCGGATG,0.0709
6,AGTTACCC,0.0762
7,AGGGATTG,0.0729
8,ATTGAACG,0.082
9,TGGCGCAA,0.0726
10,AGTGTCGG,0.0693
11,CAGGTCGC,0.0697
12,ATAATATC,0.0827
13,GGCTACCC,0.0734
14,CTGTTAGC,0.074
15,CCAGCGCC,0.0674
16,ATTGAACC,0.0786
17,ACAATACC,0.0816
18,ACAGCCCC,0.0797
19,GGTTAAAC,0.0713
20,AGACTCCA,0.0712
21,AGCTGATG,0.0705
22,ACTCGTGA,0.0957
23,TATGTGCA,0.084
24,CAATCTGC,0.0729
25,AGGGTAAC,0.0773

row,Sequence,binding signal (normalized occupancy)
1,AGTCTAAA,0.0732
2,TACTAGCA,0.079
3,ATTTCCGA,0.07
4,ATGCTCAA,0.082
5,AGAGACAA,0.0698
6,TCTGGTAA,0.0774
7,CAGATAAA,0.078
8,AATCCCTA,0.0775
9,CTAGATAG,0.0728
10,CCAGTTGA,0.0724
11,ACAGGCCT,0.0719
12,CCGATAGA,0.0736
13,CAACCGAC,0.0749
14,AACAGCCA,0.0773
15,CGCGGCAA,0.0707
16,TGCATCAA,0.0818
17,GCTCCTAC,0.0742
18,CCTGTTGA,0.0694
19,TACTAGAA,0.0774
20,TAAGACAA,0.0799
21,GCATGAAA,0.0848
22,GGAGCCAC,0.0768
23,GACATGGA,0.0844
24,GGGCGGAA,0.0682
25,TTTGCAAA,0.0763

row,Sequence,binding signal (normalized occupancy)
1,CCGGTCCC,0.0695
2,AGCCCCTC,0.074
3,GAGGGGAC,0.0738
4,AGCTCAAT,0.0681
5,TCTCTGCA,0.0724
6,AATCCGGG,0.0707
7,AATCACTG,0.0742
8,CGTGATCC,0.0811
9,TCAAGGGA,0.0725
10,CCATCGTC,0.0723
11,ATAGGACG,0.0815
12,CTGGAATC,0.0758
13,AACTCACG,0.0819
14,ATAACCGA,0.0748
15,CGTGCGAG,0.0834
16,GGCAAATA,0.08
17,CTAAGCGA,0.0687
18,CGTTCGTA,0.0781
19,ATCCATTA,0.0784
20,GATCTCCA,0.0768
21,ATGTGAAT,0.0967
22,GGGCGTCA,0.0752
23,GCTATTGA,0.0773
24,GAAGCCTC,0.0702
25,ACAGCGTG,0.123

row,Sequence,binding signal (normalized occupancy)
1,ACCACCAT,0.0825
2,ATTGATAC,0.0773
3,GAGGCATA,0.0744
4,AGGAAGAC,0.0729
5,GCGGTTCC,0.0687
6,ATTAAGTC,0.0745
7,TTAAAAAA,0.0724
8,CTTGGTAC,0.0803
9,AATATCCA,0.0773
10,CCGTCCCA,0.0776
11,ACAGAGGT,0.0779
12,CCTGACCC,0.072
13,ATAAACAA,0.0758
14,CTATGGTA,0.0763
15,GTCGGGTA,0.0755
16,GATTTGGC,0.0793
17,ATTCACTC,0.0752
18,GATACTAC,0.0771
19,AGTCTTGG,0.0692
20,AGGGGGTG,0.0802
21,ATTCGCGC,0.0824
22,AGAATCAT,0.0787
23,AGTCATGC,0.096
24,CGGTCCAG,0.0682
25,TACATCAA,0.081

row,Sequence,binding signal (normalized occupancy)
1,AAGGATGT,0.0722
2,CTACCCAA,0.0753
3,GCCTGGAC,0.0739
4,GGTCGGAA,0.0706
5,AAAGGGTC,0.0759
6,CAATGGCG,0.0709
7,AAGAAACT,0.0734
8,AGACAGCT,0.0701
9,CCTGTCAA,0.0718
10,CAGAAAAC,0.0748
11,CCATTCCA,0.0807
12,AGACGGTC,0.0743
13,ACGCTTGG,0.0747
14,CAAATACA,0.0845
15,CCTCATAC,0.0793
16,CAGCTGCG,0.0693
17,ATCTTTTA,0.0775
18,ATGACCTA,0.0878
19,ACCATGTA,0.0876
20,GGGTACCA,0.0719
21,GCCGACGA,0.0731
22,GATTTTGA,0.0757
23,AATATTGT,0.0757
24,AGCACAGC,0.0685
25,AAGACATT,0.0789

row,Sequence,binding signal (normalized occupancy)
1,CCTTCTAG,0.0711
2,CAGCCCTA,0.0758
3,CGATTAGC,0.071
4,ATGCGCAC,0.0828
5,AAGGTCAT,0.0756
6,CGTGTAAA,0.0895
7,CTGGTCCC,0.0738
8,CTAACGAC,0.0717
9,CTACCGGC,0.0672
10,AAGTGTTA,0.078
11,TCGCAGAA,0.07
12,ACTAAGTA,0.0741
13,GGCCTTGA,0.0739
14,AGGCTGAA,0.0687
15,CCGGGTCC,0.0723
16,CGCATAGA,0.0778
17,GTTCAGGA,0.0725
18,CTTTTACC,0.0701
19,AATAATCG,0.0787
20,GAGAACGC,0.0762
21,GCACAACA,0.0766
22,ATTATCAG,0.0855
23,AGTAGTGC,0.0739
24,ACTAATTA,0.0771
25,AGTCCTAC,0.0718

row,Sequence,binding signal (normalized occupancy)
1,TACCGACA,0.0767
2,GTCCGTTA,0.076
3,TACCTATA,0.0788
4,GATAAGAC,0.0751
5,CGAATACC,0.0756
6,ATAAAGCC,0.0798
7,CACCATCC,0.0824
8,TCCGCCGA,0.0646
9,AGAAACAG,0.0766
10,ACCCAGCA,0.0788
11,ATTCAGAA,0.0712
12,CGATCGGA,0.07
13,GCACGTAC,0.0883
14,ATCGCCCC,0.0783
15,ACAACCAC,0.0821
16,GGCGCATA,0.0798
17,TCAAACCA,0.078
18,AAGGCACG,0.0868
19,AACGTACG,0.0723
20,GAAAACCA,0.0763
21,CGCCATGA,0.0842
22,ATCGTGCA,0.0816
23,ATAGACAT,0.0863
24,AGCATGAG,0.102
25,CCGGGTCG,0.0736

row,Sequence,binding signal (normalized occupancy)
1,GGTTTTAA,0.0751
2,CACCTGGA,0.0905
3,AACGATAA,0.0756
4,CTTAGCGA,0.0727
5,CCTTATTC,0.075
6,CAAACCAA,0.0752
7,CTTTAAGA,0.0741
8,CGTTACAG,0.0745
9,TAATCAGA,0.0774
10,ACGGTGAG,0.0742
11,GACCCACC,0.0814
12,GAGGCCCA,0.0722
13,ACTCACGG,0.0724
14,CGCCAGGC,0.067
15,AATTGAGT,0.0752
16,CCCTCATC,0.0827
17,CTAGATAC,0.0745
18,AGGTCGTG,0.0692
19,ACTTTACA,0.0785
20,CACCGCAC,0.0783
21,AGACTTGC,0.0705
22,ATAGGATG,0.0865
23,AGAGTCTG,0.0715
24,TGGGTACA,0.0791
25,AGCTAGTG,0.0762

row,Sequence,binding signal (normalized occupancy)
1,CCAGGCCA,0.0744
2,AATTGGTA,0.0766
3,ACATCGAT,0.0839
4,AAGGCTGC,0.0688
5,CGCCGACG,0.0698
6,CTTTGCTA,0.0746
7,AATCCGCC,0.0726
8,GGTCTGCA,0.0768
9,CGGTTGAC,0.0696
10,AATTACGT,0.0817
11,ACGCAAAC,0.0692
12,ATTGTTTA,0.0731
13,AGCTACGA,0.0723
14,CCGCTGGC,0.0712
15,ATCCCCTC,0.0758
16,AACCGGTG,0.0755
17,GAACCTTC,0.0732
18,GCCATAAC,0.0784
19,GATGAAGC,0.0793
20,CTCGCATA,0.0804
21,AAGGAATG,0.0735
22,CATGAAGG,0.0817
23,CTAGCCAG,0.0691
24,AATAAATC,0.0749
25,AAAAGTCG,0.0711

row,Sequence,binding signal (normalized occupancy)
1,GTGAAGAA,0.0745
2,ATTAAGGC,0.0701
3,CTCACTTA,0.0764
4,AGGATATA,0.0816
5,CATAAAGA,0.0756
6,TTCGAGAA,0.0808
7,GACCCCAA,0.079
8,GGTAAATA,0.0782
9,ACGGCACA,0.0788
10,ACTAATCC,0.0789
11,CTGCAGAA,0.0727
12,CGACACAA,0.0763
13,CACCCTCA,0.0829
14,GAGTCTGA,0.0726
15,ACTGAGTG,0.0746
16,GGACAAGA,0.0714
17,TAGTATCA,0.0756
18,ATCGACAC,0.0841
19,GACCCATC,0.0764
20,CAAAGTAG,0.0712
21,CACTCGGC,0.0727
22,CATTTACA,0.0804
23,TCCCTAAA,0.0748
24,ACTTGACC,0.0672
25,GCGAATAA,0.0756

row,Sequence,binding signal (normalized occupancy)
1,CCTTTATC,0.0707
2,TCGAGAAA,0.0822
3,GGTTGGGA,0.0718
4,CGAATAGC,0.076
5,AGGACCCG,0.071
6,AGATACGG,0.07
7,AGCCGCAT,0.0772
8,ACGCTCGA,0.0833
9,AAGCAAAT,0.073
10,ACGTCTCT,0.0717
11,AATCGTCC,0.0712
12,ATACTCGA,0.0743
13,ATATAAAC,0.0809
14,AGACAGCA,0.075
15,GAGGCCGA,0.0714
16,AATCTGGG,0.0714
17,ATCGAAGA,0.0743
18,AATGCATG,0.1
19,AGATCAGC,0.0721
20,CTAAGAAC,0.0757
21,GGTGCGTA,0.0772
22,CTCGACGA,0.0668
23,ACATGCAC,0.0954
24,ATTCTTCG,0.0734
25,TCCCGCCA,0.0727

row,Sequence,binding signal (normalized occupancy)
1,GGCCTAAA,0.0717
2,ATCAAATA,0.0822
3,ATTGATTC,0.0703
4,CTCGAAGC,0.0669
5,CGAAGTAG,0.0648
6,AGATATAC,0.0813
7,AACACTGG,0.078
8,CCTGGGAC,0.0732
9,AGATTATG,0.0778
10,GGCAGATA,0.0757
11,TATAGGCA,0.083
12,ATAAAACG,0.079
13,ACTAAGCG,0.0688
14,CCAAAGGG,0.068
15,CCATGTAA,0.0855
16,CTACGGAC,0.0717
17,CGTCAACC,0.0721
18,GCATGGGC,0.0946
19,ACGACAAA,0.0746
20,CCTCGTAC,0.0715
21,GAGCGAAA,0.0677
22,GATGACAA,0.0764
23,GATATCTA,0.0825
24,TCAGTTAA,0.076
25,CCTATATC,0.0766

row,Sequence,binding signal (normalized occupancy)
1,CTGGCCAG,0.0682
2,ATCGATGC,0.0768
3,CATCTATC,0.0808
4,TCATAAAA,0.0751
5,CACGCCAC,0.0943
6,GATTTCGA,0.0737
7,ATTTTCAG,0.0739
8,CGGACGCC,0.0726
9,CTGTTCAC,0.0797
10,ACAGTCGT,0.0727
11,GAGGTCGC,0.0789
12,CCTCAAAG,0.0733
13,ACAGGGTA,0.077
14,CTGGTCAC,0.0773
15,ATACGAAT,0.0777
16,TGAGCCCA,0.074
17,AGCGCGTG,0.117
18,GTCCGCTA,0.0676
19,CCGGCCAA,0.0717
20,ATAACTAG,0.0817
21,TACGCCAA,0.0683
22,CTCACTCA,0.0759
23,CGCTCTGC,0.0677
24,GCCGTTAC,0.0696
25,GCCGTTCA,0.0711

row,Sequence,binding signal (normalized occupancy)
1,TCACAAAA,0.0778
2,AGCGCGGA,0.074
3,CCCTTGCG,0.0718
4,AATATAAG,0.0817
5,CTCACGCC,0.0879
6,ATTTCAGA,0.0733
7,CCGGTGCC,0.067
8,GGGTATAA,0.0798
9,CATCGACC,0.073
10,ATAGCAAC,0.0797
11,AAAAAACC,0.0778
12,AATTACGC,0.082
13,AGAACTAT,0.0764
14,ACCTCAAT,0.0773
15,ATTCACAC,0.0855
16,TAACGGCA,0.0754
17,CTGCTTGA,0.0719
18,CTCTAACC,0.0754
19,ATGCTTGC,0.0786
